# Data from the supplement of paper PMC3334620.
# The full ranking holds about 33,000 sequences; the median of “E-score (-0.5 to 0.5)” is about -0.032, and the highest 2% start at about 0.36. The list shows a part of the results.
# Molecular target: T1, Sko1 (UniProt Q02100)
# T1 sequence: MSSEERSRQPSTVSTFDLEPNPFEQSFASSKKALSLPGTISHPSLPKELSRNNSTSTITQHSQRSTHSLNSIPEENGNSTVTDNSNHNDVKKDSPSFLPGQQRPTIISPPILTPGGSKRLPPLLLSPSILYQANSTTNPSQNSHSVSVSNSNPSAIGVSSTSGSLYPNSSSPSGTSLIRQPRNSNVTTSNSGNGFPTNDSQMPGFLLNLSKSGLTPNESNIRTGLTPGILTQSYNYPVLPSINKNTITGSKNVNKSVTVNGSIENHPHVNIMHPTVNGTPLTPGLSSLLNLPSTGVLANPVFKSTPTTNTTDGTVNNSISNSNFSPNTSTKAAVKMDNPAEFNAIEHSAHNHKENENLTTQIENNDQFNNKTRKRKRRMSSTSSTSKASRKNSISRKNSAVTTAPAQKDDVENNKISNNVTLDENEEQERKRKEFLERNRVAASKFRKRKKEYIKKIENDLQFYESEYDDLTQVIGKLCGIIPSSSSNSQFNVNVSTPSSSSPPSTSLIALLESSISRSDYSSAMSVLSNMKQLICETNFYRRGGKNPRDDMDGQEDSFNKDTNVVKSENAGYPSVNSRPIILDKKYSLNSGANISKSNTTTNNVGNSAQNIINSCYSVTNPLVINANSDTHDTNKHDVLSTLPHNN
# Assay: PBM E-score (8-mer binding enrichment) (E-score (-0.5 to 0.5)); higher = stronger / more preferred TF binding; most listed sequences are background and not binding sites
# Conditions: protein concentration: 200 nM; construct: GST-full length
# Summary of the method: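 E-scores (a modified Wilcoxon-Mann-Whitney statistic) were assigned by the Universal PBM Analysis Suite to every ungapped eight-base word pooled with its reverse complement. The input came from universal all-10-mer Agilent arrays made double-stranded by primer extension and probed with GST-tagged yeast transcription factors at about 100-200 nM. Fluorescent anti-GST detected bound protein, and masliner normalised the scans.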
row,Sequence,PBM E-score
1,AGCGCAAA,0.034
2,GAACATCC,-0.0417
3,CCCATACC,-0.135
4,ACGCTCCT,0.0118
5,CTGTCTCC,-0.192
6,TACAGGTA,-0.0036
7,AAATCACT,0.0538
8,AGCGCATC,0.0133
9,TGCTGAAA,0.043
10,ATGCCATG,0.118
11,CATCGCGG,0.061
12,AGGAATAT,0.0863
13,GGCGCCCC,-0.262
14,CGAGACGA,-0.179
15,ATTAGGCA,0.172
16,CCTATCAC,-0.186
17,GCTTGCAC,-0.145
18,AAACCGGC,-0.199
19,GGGAGAAA,-0.134
20,GTGTATTA,0.272
21,CAGGTTGC,0.0442
22,GGCCACCC,-0.263

row,Sequence,PBM E-score
1,CCGGCTAG,-0.322
2,AGTGCACT,-0.139
3,AGGCTGCA,-0.00537
4,ACTGAACT,-0.0554
5,GACCTATA,0.221
6,GGCCGACA,-0.183
7,GGACAGCC,-0.339
8,CGCAGCCC,-0.167
9,AACCCTCA,-0.0917
10,GCGCTAGC,-0.2
11,AGCGGCCG,-0.0793
12,CGGCTTCC,-0.238
13,ATCAATCA,0.12
14,CGGCTGAA,-0.0511
15,CACATTGG,0.0373
16,GCAAGACC,-0.17
17,CCTTCGGC,-0.159
18,ATCTGGAG,-0.26
19,TAGGTTGA,-0.0514
20,CCGTGTGC,-0.179
21,ACTAGTGG,-0.129
22,AGTCTGTC,-0.179

row,Sequence,PBM E-score
1,AGAGACGG,-0.12
2,AGGTGTGA,-0.0863
3,AAGAGGGA,-0.207
4,ATAGCAAC,0.0401
5,CGACGCAA,0.233
6,TCGCCGCA,-0.201
7,TAATACCA,0.162
8,AGCGTCGG,-0.111
9,ACAGAGAG,-0.274
10,AACTTCTA,-0.0142
11,CCAGTTTA,-0.0951
12,ACGAGACC,-0.0717
13,CGCAGGCG,-0.0698
14,CCATGTTA,0.0281
15,AGCGATAG,-0.236
16,CCTCGTAA,0.203
17,TAGGCGAA,-0.0413
18,AGGACCTA,-0.141
19,AACAACGA,0.0961
20,CAGGGCGG,-0.377
21,AATGACAA,0.207
22,GCGGTCAC,-0.0795

row,Sequence,PBM E-score
1,AGGTCACA,-0.122
2,AACCGCTA,-0.00527
3,CGTCAAAC,0.253
4,ATCAATAA,0.198
5,AAGTCGAA,-0.174
6,CGCTGCGC,-0.217
7,TCAGTCCA,-0.15
8,CTTTGAAA,0.0544
9,GCTGTCCA,-0.184
10,AAGCTAGT,0.0559
11,AACCAATT,0.0262
12,CCAGTTCC,-0.259
13,TATAGCCA,0.0755
14,CGGCGGCA,-0.304
15,CGGCAGTC,-0.246
16,ATCTCGCC,-0.104
17,TCCGGCCA,-0.377
18,ATACGTTG,0.391
19,CGCATCAC,0.201
20,CATGTCGA,-0.147
